Reference: the RNAGym collection of RNA variant scans (doi:10.7554/elife.90254)
Read counts are not given, so values of variants with three or more changes are uncertain.

B1: LINE1-full (parent)
chain: UACGUAGGUGGUUUUCCCCUGAUAGUGCUAAGGGGGCCUGGAAGUUUGGACUGGGCAGAGCUCAACACAGCGUGGCAAAGUGGCUGUGGCUAGACUGCCUCUCUGGAUUCCUCGUCACUCAGCAGGGCAUCUCUGAGAGAAAUGCC

Variants of: B1
Assay: self-cleavage, relative activity (ratio to wild type); higher = more cleavage; in vitro, sequencing; the parent is a self-cleaving ribozyme

Variant	self-cleavage
UACGUAGGUGGUUUUCCCCUGAUAGUGCUAAGGGGGCCUGGAGGUUUGGACAGGGCAGAGCUCAACACAGCGUGGCAAAGUGGCUGUGGCUAGACUGCCUCUCUGGAUUCCUCGUCACUCAGCAGGGCAUCUCUGAGAGAGAUGCC [A43G U52A A141G]	1.46
UACGUAGGUGGUUUUCCCCUGAUAGUGCUAAGGGGGCCUGGAGGUUUGGACUGGGCAGAGCCCAACACAGCGUGGCAAAGUGGCUGUGGCUAGACUGCCUCUCUGGAUUCCUCGUCACUCAGCAGGGCUUCUCUGAGAGAAAUGCC [A43G U62C A129U]	0.06
UACGUAGGUGGUUUUCCCCUGAUAGUGCUAAGGGGGCCUGGAGGUCUGGACUGGGCAGAGCUCAACACAGCGUGGCAAAGUGGCUGUGGCUAGACUGCCUCUCUGGAUUCCUCGUCACUCCGCAGGGCAUCUCUGAGAGAAAUGCC [A43G U46C A121C]	0.68
UACGUAGGUGGUUUUCCCCUGAUAGUGCUAAGGGGGCCUGGAGGUCUGGACUGGGCAGGGCUCAAUACAGCGUGGCAAAGUGGCUGUGGCUAGACUGCCUCUCUGGAUUCCUCGUCACUCAGCAGGGCAUCUCUGAGAGAGAUGCC [A43G U46C A59G C66U A141G]	0.07
UACGUAGGUGGUUUUCCCCUGAUAGUGCUAAGGGGGCCUGGAGGUUUGGACUGGGCAGAGCCCCACACAGAGUGGCAAAGUGGCUGUGGCUAGACUGCCUCUCUGGAUUCCUCGUCACUCAGCAGGGCAUCUCUGAGUGAAAAGCC [A43G U62C A64C C71A A138U U143A]	0.04
UACGUAGGUGGUUUUCCCCUGAUAGUGCUAAGGGGGCCUGGAGGUUUGGACUGGGCAGAGCCCAACACAGCGUGGCAAAGUGGCUGUGGCUAGACUGCCUCUCUGGAUUCCUCGUCACUCAGCAGGGCAUCACUGAGAGAAAUGCC [A43G U62C U132A]	0
UACGUAGGUGGUUUUCCCCUGAUAGUGCUAAGGGGGCCUGGAGGUUUGGACUGGGCAGAGCACAACACAGCGUGGCAAAGUGGCUGUGGCUAGACUGCCUCCCUGGAUUCCUCGUCACUCAGCAGGGCAUCUCUGAGAGAAAUGCC [A43G U62A U102C]	0.06
UACGUAGGUGGUUUUCCCCUGAUAGUGCUAAGGGGGCCUGGAGGUUCGGACUGGGCAGAGCUCAACACAGCGUGGCAAAGUGGCUGUGGCUAGACUGCCUCUCUGGAUUCCUCGUCACUCAGCAGGGCAUCUCUGGGAGUAAUGCC [A43G U47C A136G A140U]	2.21
UACGUAGGUGGUUUUCCCCUGAUAGUGCUAAGGGGGCCUGGAGGUUAGGACUGGGCGGAGCACAACACAGCGUGGCAAAGUGGCUGUGGCUAGGCUGCCUCUCUGGAUUCCUCGUCACUCAGCAGGGCAUCUCUGAGAGAAAUGCC [A43G U47A A57G U62A A94G]	0
UACGUAGGUGGUUUUCCCCUGAUAGUGCUAAGGGGGCCUGGAGGUUUGGACUGGGCAGAGCUCAACACAGCGAGGCAAAGUGGCUGAGGCUAGACUGCCUCUCUGGAUUCCUCGUCACUCAGCAGGGCAUCUCUGGGAGUGAUGCC [A43G U73A U87A A136G A140U A141G]	0.03
UACGUAGGUGGUUUUCCCCUGAUAGUGCUAAGGGGGCCUGGAGGUAUGGACUGGGCAGAGCUCAACACAGCGUGGCAAAGUGGCUGUGGCUAGACGGCCUCUCUGGAUUCCCCGUCACUCAGCAGGGCAUCUCUGAGAGAAAUGCC [A43G U46A U96G U112C]	0
UACGUAGGUGGUUUUCCCCUGAUAGUGCUAAGGGGGCCUGGAGGUUUGGACUGGGCAGAGCCCAACACAGCGUGGCAAAGUGGCUGUGGCUAGACUGCCUCUCCGGAUUCCUCGUCACUCAGCAGGGCAUCUCUGAGAGAAAUGCC [A43G U62C U104C]	0.15
UACGUAGGUGGUUUUCCCCUGAUAGUGCUAAGGGGGCCUGGAGGUUUGGACCGGGCAGAGCUCAACACGGCGUGGCAAAGUGGCUGUGGCUAGACUGCCUCUCUGGAUUCCUCGUCACUCAGCUGGGCAUCUCUGAGAGAAAUGCC [A43G U52C A69G A124U]	2.63
UACGUAGGUGGUUUUCCCCUGAUAGUGCUAAGGGGGCCUGGAGGUUUGGACCUGGCAGAGCUCAACACAGCGUGGCAAAGUGGCUGUGGCUAGACUGCCUCUCUGGAUUCCUCGUCACUCAGCAGGGCAUCUCUGAGAGAAAUGCC [A43G U52C G53U]	1.2
UACGUAGGUGGUUUUCCCCUGAUAGUGCUAAGGGGGCCUGGAGGUUCGGACUGGGCAGAGCUCAACACAGCGUGGCAAAGUGGCUGUGGCUAGACUGCCUCUCUGGAUUCCUCGUUACUCGGCAGGGCAUCUCUGAGAGAAGUGCC [A43G U47C C116U A121G A142G]	1.42
UACGUAGGUGGUUUUCCCCUGAUAGUGCUAAGGGGGCCUGGAGGUUUGGACUGGGCAGAGCACAACACAGCGUGGCAAAGUGGCUGUGGCGAGACUGCCUCUCUGGGUUCCUCGUCACUCAGCAGGGCAUCUCUGAGAGUAAUGCC [A43G U62A U91G A107G A140U]	0
UACGUAGGUGGUUUUCCCCUGAUAGUGCUAAGGGGGCCUGGAGGUUCGGACUGGGCAGAGCUCAACACAGCGUGGCAAAGUGGCUGUGGCUAGACUGCCUCACUGGAUUCCUCGUCACUCAGCAGGGCAUCUCUGAGAGAAAUGCC [A43G U47C U102A]	1.78
UACGUAGGUGGUUUUCCCCUGAUAGUGCUAAGGGGGCCUGGAGGUUUGGACUGGGCAGAGCCCAACACAGCGUGGCAAAGUGGCUGUGGCUAGACUGCCUCUCUGGAUUCCUCGUCAAUCAGCAGGGCAUCUCUGAGAGAAAUGCC [A43G U62C C118A]	0.21
UACGUAGGUGGUUUUCCCCUGAUAGUGCUAAGGGGGCCUGGAGGUUUGGACUGGGCAGAGCUCAACACAGCGAGGCAAAGUGGCUGUGGCUAGACUGCCUCUCUGGAUUCCUCGUCACUCAGCAGGGCAUCUCUGAGAGAAAUGUC [A43G U73A C145U]	1.56
UACGUAGGUGGUUUUCCCCUGAUAGUGCUAAGGGGGCCUGGAGGUUUGGACUGGGCAGAGCCCAACACAGCGUGGCAAAGUGGCUGUGGCUAGACUGCCUCUCUGGAUUCCUCGUCACUCAGCGGGGCAUCUCUGAGAGAAACGCC [A43G U62C A124G U143C]	0.13
